Source: PubChem BioAssay AID488969 (Vanderbilt High Throughput Screening Facility, 2010)
In all, about 110,000 compounds were measured (“z-score”: median about -0.1, highest 2% from about 2 on). The list shows a part of the results. Activity calls are given as the source filed them.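 How the source made its calls: active means z-score in the third read window above 3 or below -3; inactive means the rest.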

What follows are compounds tested against Metabotropic glutamate receptor 8 (Rattus norvegicus) (UniProt P70579) (assay: mGluR8 Gi/Go-coupled signaling modulation – cell-based, rat, thallium flux, HTS, primary screen (AID 488969)). Details: HEK293 rat mGluR8, GIRK (G protein-gated inwardly rectifying potassium channel) thallium flux, FluoZin2; at 10 µM; stronger effect = higher value; submaximal glutamate (EC20) added with thallium.
Sequence of UniProt P70579 (P70579 whole entry, looked up): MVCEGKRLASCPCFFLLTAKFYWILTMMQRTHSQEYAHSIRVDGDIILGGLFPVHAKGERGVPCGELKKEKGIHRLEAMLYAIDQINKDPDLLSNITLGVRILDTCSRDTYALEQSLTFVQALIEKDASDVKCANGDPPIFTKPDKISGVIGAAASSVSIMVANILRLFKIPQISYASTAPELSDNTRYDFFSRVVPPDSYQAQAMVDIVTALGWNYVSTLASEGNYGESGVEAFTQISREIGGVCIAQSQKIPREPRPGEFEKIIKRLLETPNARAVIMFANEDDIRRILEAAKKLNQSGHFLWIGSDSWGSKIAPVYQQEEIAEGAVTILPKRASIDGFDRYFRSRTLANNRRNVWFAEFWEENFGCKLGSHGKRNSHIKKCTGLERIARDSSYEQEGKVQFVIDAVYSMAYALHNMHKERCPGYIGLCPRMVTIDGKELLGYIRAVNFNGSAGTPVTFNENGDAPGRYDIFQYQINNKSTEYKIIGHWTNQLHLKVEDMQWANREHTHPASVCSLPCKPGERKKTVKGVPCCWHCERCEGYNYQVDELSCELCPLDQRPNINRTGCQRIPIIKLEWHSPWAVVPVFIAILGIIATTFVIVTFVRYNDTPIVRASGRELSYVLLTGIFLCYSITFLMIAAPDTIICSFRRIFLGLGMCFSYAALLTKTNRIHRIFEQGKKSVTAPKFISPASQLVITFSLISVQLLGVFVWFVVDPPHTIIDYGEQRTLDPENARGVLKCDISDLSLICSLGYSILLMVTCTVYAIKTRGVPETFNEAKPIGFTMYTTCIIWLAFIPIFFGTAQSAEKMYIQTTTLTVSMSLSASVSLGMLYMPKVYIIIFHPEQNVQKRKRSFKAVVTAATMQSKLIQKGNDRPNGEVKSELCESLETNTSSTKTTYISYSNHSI
CCOC(=O)COc1cc(OCC(=O)OCC)c2c(=O)cc(-c3ccccc3)oc2c1 showed a z-score of -0.568.
CCOC(=O)c1[nH]c2ccc(OC)cc2c1NC(=O)c1ccc2c(c1)OCO2 showed a z-score of 0.83.
CCOC(=O)N1CCC(NS(=O)(=O)c2ccc3c(c2)C(C)(C)C(=O)N3C)CC1 gave a z-score of 0.427.
CCOC(=O)C(C)Oc1ccc2c(-c3cccc([N+](=O)[O-])c3)cc(=O)oc2c1 (stereo not given) gave a z-score of -0.491.
Work on CCC(=O)Oc1ccc(C2N(C(=O)CC)CCN2S(=O)(=O)c2ccc(C)cc2)cc1OC (stereo not given) yielded a z-score of -0.0522.
In the case of CCCCCCn1c(CN2CCC(C)CC2)nc2c1c(=O)n(C)c(=O)n2C, the z-score is reported as -0.775.
Work on Cc1noc(C)c1S(=O)(=O)N1CCC(C(=O)N2CCN(c3ccccc3Cl)CC2)CC1 yielded a z-score of -0.577.
CN(C)c1ccc(NC(=O)c2ccc3nsnc3c2)cc1 gave a z-score of -0.152.
O=C(CN1C(=O)C2C3C=CC(C4CC34)C2C1=O)OCC(=O)c1ccccc1 (stereo not given) showed a z-score of -0.112.
For CCOC(=O)CNC(=O)Cn1cnc2c(nnn2-c2cccc(Cl)c2)c1=O, the z-score was -0.134.
For COc1ccccc1NC(=O)N1CCN(c2ncccn2)CC1, the z-score was 0.74.
For CCc1cccc(CC)c1NC(=O)CO/N=C(\C)c1cccs1, the z-score was -1.14.
For O=C(COC(=O)C1CC(=O)N(Cc2ccccc2)C1)Nc1ccc2c(c1)OCO2 (stereo not given), the z-score was active: -4.56.
Work on CCCC(c1nnnn1CCOC)N1CCN(C(=O)c2ccco2)CC1 (stereo not given) yielded a z-score of -0.0556.
In the case of O=C(CCNc1ccc(Cl)c(C(F)(F)F)c1)c1ccco1, the z-score is reported as -0.274.
With Cc1ccc(C)c(C2=CSC3=NS(=O)(=O)CCN23)c1 the z-score was -0.128.
Cc1ccccc1N(Cc1nnc2n1CCCCC2)C(=O)Nc1ccccc1 gave a z-score of -0.143.
With CCSc1nc(=O)n(-c2ccccc2)c(C)c1C(C)=S the z-score was -0.13.
Work on COc1ccc2c(c1OC)C(=O)OC2Nc1nc(-c2cc3ccccc3oc2=O)cs1 (stereo not given) yielded a z-score of 0.633.
Compound CCn1c(SC)nnc1-c1nnc(SC)n1CC has a z-score of 0.0941.
COc1ccc(N2C(=O)CC(N3CCN(c4ccc(S(=O)(=O)N5CCCC5)cc4)CC3)C2=O)cc1 (stereo not given) showed a z-score of 1.43.
Work on N#Cc1cc2c(nc1SCc1ccccc1)CCCCC2 yielded a z-score of -0.0789.
With O=C(CNC(=O)c1cccs1)NCCN1CCC(Cc2ccccc2)CC1 the z-score was -0.612.
O=S(=O)(c1cccs1)N1CCC(Cc2ccccc2)CC1 gave a z-score of -0.0595.
Work on COc1ccc(S(=O)(=O)Nc2ccc3c(c2)OCO3)cc1C(=O)O yielded a z-score of 1.61.
Work on COc1ccc(/C=C2/C(=O)N=C3SCCN32)cc1 yielded a z-score of -0.16.
CCN1CCN(C(=O)c2cc3sccc3n2CC(=O)c2ccccc2)CC1 was tested, and the z-score was -0.119.
In the case of COCCN(CCOC)C(=O)CCn1c(=O)oc2ccccc21, the z-score is reported as 0.976.
COc1cc(NC(=O)CCCc2c[nH]c3ccccc23)cc(OC)c1 was tested, and the z-score was -0.283.
Cc1ccc(CNC(=O)CCS(=O)(=O)c2ccc(Cl)cc2)cc1 was tested, and the z-score was -0.472.
